# Reference: the supplement of paper PMC10369915
# The other results are listed elsewhere or left out. No stated cut-off is given here; in the data, active = 3.2 or more and inactive = the rest. The signal is at background level for most entries.
# B1: TP53_Y234_H233P (peptide)
# chain: CTTIPYNYMCN
# B2: TP53_Y234_H233P_YF (peptide)
# chain: CTTIPYNFMCN
# B3: TP53_Y234_H233R (peptide)
# chain: CTTIRYNYMCN
# B4: TP53_Y234_H233Y (peptide)
# chain: CTTIYYNYMCN
# B5: TP53_Y234_I232L_YF (peptide)
# chain: CTTLHYNFMCN
# B6: TP53_Y234_I232N (peptide)
# chain: CTTNHYNYMCN
# B7: TP53_Y234_I232N_YF (peptide)
# chain: CTTNHYNFMCN
# B8: TP53_Y234_I232S (peptide)
# chain: CTTSHYNYMCN
# B9: TP53_Y234_I232T (peptide)
# chain: CTTTHYNYMCN
# B10: TP53_Y234_I232T_YF (peptide)
# chain: CTTTHYNFMCN
# B11: TP53_Y234_M237I_YF (peptide)
# chain: CTTIHYNFICN
# B12: TP53_Y234_M237L (peptide)
# chain: CTTIHYNYLCN
# B13: TP53_Y234_M237R_YF (peptide)
# chain: CTTIHYNFRCN
# B14: TP53_Y234_M237V (peptide)
# chain: CTTIHYNYVCN
# B15: TP53_Y234_M237V_YF (peptide)
# chain: CTTIHYNFVCN
# B16: TP53_Y234_N235D_YF (peptide)
# chain: CTTIHYDFMCN
# B17: TP53_Y234_N235H (peptide)
# chain: CTTIHYHYMCN
# B18: TP53_Y234_N235H_YF (peptide)
# chain: CTTIHYHFMCN
# B19: TP53_Y234_N235I_YF (peptide)
# chain: CTTIHYIFMCN
# B20: TP53_Y234_N235M_YF (peptide)
# chain: CTTIHYMFMCN
# Target: SHP2 C-SH2 domain E139D
# Assay: enrichment score (SH2-bound / input frequency) (ratio); bacterial display of known human phosphotyrosine sites (pTyr-Var adds point mutants) read by sequencing; higher = stronger binding; tyrosines were phosphorylated by kinases first
# Conditions: peptide library: pTyr-Var
# 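Further: displayed peptides selected on beads carrying the immobilized SH2 domain, with library peptides lacking any tyrosine serving as negative controls.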
row,Binder,enrichment score
1,B1,inactive: 2.65
2,B2,inactive: 2.29
3,B3,active: 4.8
4,B4,active: 4.98
5,B5,active: 3.52
6,B6,inactive: 2.88
7,B7,inactive: 2.29
8,B8,inactive: 2.8
9,B9,inactive: 2.74
10,B10,inactive: 2.99
11,B11,active: 4.12
12,B12,active: 5.08
13,B13,active: 3.4
14,B14,active: 5.52
15,B15,active: 5.02
16,B16,inactive: 3.19
17,B17,active: 3.22
18,B18,active: 3.69
19,B19,inactive: 2.47
20,B20,active: 3.71

# Target: SHP2 C-SH2 domain wild-type
# Assay: as above
# Conditions: peptide library: pTyr-Var
row,Binder,enrichment score
1,B1,inactive: 2.41
2,B2,inactive: 1.97
3,B3,active: 3.82
4,B4,active: 4.11
5,B5,active: 3.38
6,B6,active: 4.43
7,B7,inactive: 2.42
8,B8,active: 4.44
9,B9,active: 4.54
10,B10,inactive: 2.94
11,B11,active: 3.46
12,B12,active: 5.7
13,B13,inactive: 2.64
14,B14,active: 6.52
15,B15,active: 3.91
16,B16,active: 3.57
17,B17,inactive: 3.07
18,B18,active: 3.35
19,B19,inactive: 2.39
20,B20,active: 4.17

# Target: SHP2 N-SH2 domain L43F
# Assay: as above
# Conditions: peptide library: pTyr-Var
row,Binder,enrichment score
1,B1,inactive: 2.57
2,B2,inactive: 2.25
3,B3,active: 4
4,B4,active: 4.48
5,B5,active: 3.56
6,B6,inactive: 1.79
7,B7,inactive: 2.16
8,B8,inactive: 1.64
9,B9,inactive: 1.59
10,B10,inactive: 2.57
11,B11,active: 3.66
12,B12,active: 3.43
13,B13,active: 3.22
14,B14,inactive: 3.11
15,B15,active: 4.03
16,B16,active: 3.5
17,B17,inactive: 3.07
18,B18,active: 3.45
19,B19,inactive: 2.19
20,B20,active: 3.83

# Target: SHP2 N-SH2 domain T42A
# Assay: as above
# Conditions: peptide library: pTyr-Var
row,Binder,enrichment score
1,B1,inactive: 2.08
2,B2,inactive: 2.12
3,B3,active: 3.29
4,B4,inactive: 3.17
5,B5,inactive: 2.69
6,B6,inactive: 1.65
7,B7,inactive: 1.58
8,B8,inactive: 1.47
9,B9,inactive: 1.27
10,B10,inactive: 2.22
11,B11,inactive: 2.68
12,B12,active: 3.46
13,B13,inactive: 2.69
14,B14,inactive: 2.69
15,B15,inactive: 2.93
16,B16,inactive: 2.69
17,B17,inactive: 2.39
18,B18,inactive: 2.65
19,B19,inactive: 2.11
20,B20,active: 3.39

# Target: SHP2 N-SH2 domain T52S
# Assay: as above
# Conditions: peptide library: pTyr-Var
row,Binder,enrichment score
1,B1,inactive: 2.39
2,B2,inactive: 2.13
3,B3,active: 3.85
4,B4,active: 3.87
5,B5,active: 3.25
6,B6,inactive: 1.78
7,B7,inactive: 2.23
8,B8,inactive: 1.58
9,B9,inactive: 1.54
10,B10,inactive: 2.9
11,B11,active: 3.37
12,B12,inactive: 3.13
13,B13,inactive: 3.02
14,B14,inactive: 3.15
15,B15,active: 3.8
16,B16,active: 3.31
17,B17,inactive: 2.62
18,B18,inactive: 3.1
19,B19,inactive: 2.22
20,B20,active: 3.41

# Target: SHP2 N-SH2 domain wild-type
# Assay: as above
# Conditions: peptide library: pTyr-Var
row,Binder,enrichment score
1,B1,inactive: 2.07
2,B2,inactive: 1.66
3,B3,active: 3.56
4,B4,active: 4.31
5,B5,inactive: 2.66
6,B6,inactive: 1.44
7,B7,inactive: 1.52
8,B8,inactive: 1.41
9,B9,inactive: 1.41
10,B10,inactive: 2.45
11,B11,inactive: 3.03
12,B12,active: 3.28
13,B13,inactive: 2.9
14,B14,inactive: 2.87
15,B15,active: 3.69
16,B16,inactive: 3.09
17,B17,inactive: 2.55
18,B18,inactive: 3.15
19,B19,inactive: 2.35
20,B20,active: 3.71
